In all, about 390,000 compounds went through this assay and about 930 (0.24%) were called active. The shares of active, inactive and inconclusive entries below differ from those in the screen. Calls come from the whole dose curve; as a rule, active = well fitted activation curve with a large enough effect; inconclusive = small, poorly fitted or top-dose-only effect; inactive = no such curve, though single readings can be large or run the other way. Potencies beside an inconclusive call are fits to weak or partial responses and may not hold up.
assay: qHTS for Suppressors of FUS Proteinopathy: Primary screen using FUS-linked yeast assay; note: nearly all actives have a fitted effect of over 55% in size; details: S. cerevisiae FUS-expressing, OD600, 24 h; Potency: growth rescue; series mostly up to 76.6 µM
In short: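 Quantitative HTS measuring growth restoration of FUS-toxic yeast. Galactose-induced cells (OD 0.005) were exposed 24hr at 30C to compounds at several concentrations, then absorbance at 600 nm was recorded.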
Potency is the fitted concentration of half-maximal effect; tags give direction and shape of the fitted curve.

Structure (SMILES) | Potency
CC1=C(C(=O)N2CCCCCC2)CC(CC(=O)NC(c2ccccc2)c2ccccc2)C(=O)N1Cc1ccccc1 (stereo unspecified) | inconclusive: 20 µM [activator, partial curve, poor fit]
O=C(Nc1cccc(C(F)(F)F)c1)c1cc(-c2ccco2)on1 | inactive
COc1ccc(/C=N/NC(=O)c2nn(-c3ccccc3)c(=O)c3c(N)scc23)cc1 | inconclusive: 14.1 µM [activator, partial curve, poor fit]
CC(C)c1ccc(NC(=O)C2Cc3c(-c4cccc(C(N)=O)c4)ccnc3O2)cc1 (stereo unspecified) | inconclusive: 31.6 µM [activator, single point]
CC(=O)N(c1ccc2oc(=O)sc2c1)S(=O)(=O)c1ccccc1 | inconclusive: 31.6 µM [activator, single point]
COc1ccc(S[C@]2(C(=O)N3CCN(c4ncccn4)CC3)CC(=O)N(c3ccc4ccccc4c3)[C@@H]2c2ccc(OC)cc2)cc1 | inconclusive: 25.1 µM [activator, single point]
CC(=O)Nc1ccc(N2CCCC2)cc1 | inconclusive: 50.1 µM [activator, single point]
C#CCN(C[C@@H]1[C@@H](OC(=O)NC2CCCC2)[C@@H](OC(=O)NC2CCCC2)Cn2c(=O)ccc(=O)n21)S(=O)(=O)c1ccc(C)cc1 | inconclusive: 28.2 µM [activator, single point]
COc1ccc(NC(=O)C2CCN(S(=O)(=O)c3c(C)noc3C)CC2)cc1OC | inconclusive: 5.01 µM [activator, full curve, poor fit]
COc1ccc(N(C(=O)/C=C\C(=O)Nc2ccc(C)cc2)C(C(=O)NCc2ccco2)c2ccc(C)cc2)cc1 (stereo unspecified) | inconclusive: 12.6 µM [activator, partial curve, poor fit]
COc1ccc(Nc2oc(/C=C/c3cccc(OC)c3)nc2C#N)cc1 | inconclusive: 14.1 µM [activator, single point]
CCOC(=O)C(CC)n1cnc2c(nnn2-c2ccc(F)cc2)c1=O (stereo unspecified) | inactive
CN(CCOc1ccc(-c2ccn(S(=O)(=O)c3ccc(Cl)cc3)n2)cc1)c1ccccn1 | inconclusive: 56.2 µM [activator, partial curve, poor fit]
COc1cc(C2c3c(-c4ccccc4O)n[nH]c3C(=O)N2Cc2ccco2)ccc1OCC(C)C (stereo unspecified) | inactive
O=C1CCC[C@H]2C[C@H](NCc3ccccc3Cl)CC[C@]23CCCN13 | inactive
O=C(N/N=C/c1cccnc1)c1ccc(CN2c3cccc4cccc(c34)S2(=O)=O)cc1 | inconclusive: 50.1 µM [activator, single point]

Source: PubChem BioAssay AID1347120 (National Center for Advancing Translational Sciences (NCATS), 2019)
